From the supplement of paper PMC11741623
The other results are listed elsewhere or left out. Interaction screen of human proteins with wild-type SARS-CoV-2 proteins by split-DHFR complementation in yeast, 1 µg/mL methotrexate. Value = fitness of the pair (three or more lineages) minus that of the viral protein without a human partner, on a scale set by negative (0) and fused positive (1) controls, mean of up to three cultures; higher = more likely to interact. Active = false discovery rate below 0.05 (one-sided t-test) in at least one culture. Nearly all pairs are not hits, and differences among them are mostly noise (correlation between cultures about 0.3); most hits were seen in one culture only. Human sequences are the Swiss-Prot entries looked up by gene name; the clone may be another isoform. NSP2 values were corrected by the authors for a growth advantage. Listed are human proteins with a hit and a random twelfth of the others.

B1: ARHGAP25, P42331 (protein)
chain: MSLKLPRNWDFNLKVEAAKIARSRSVMTGEQMAAFHPSSTPNPLERPIKMGWLKKQRSIVKNWQQRYFVLRAQQLYYYKDEEDTKPQGCMYLPGCTIKEIATNPEEAGKFVFEIIPASWDQNRMGQDSYVLMASSQAEMEEWVKFLRRVAGTPCGVFGQRLDETVAYEQKFGPHLVPILVEKCAEFILEHGRNEEGIFRLPGQDNLVKQLRDAFDAGERPSFDRDTDVHTVASLLKLYLRDLPEPVVPWSQYEGFLLCGQLTNADEAKAQQELMKQLSILPRDNYSLLSYICRFLHEIQLNCAVNKMSVDNLATVIGVNLIRSKVEDPAVIMRGTPQIQRVMTMMIRDHEVLFPKSKDIPLSPPAQKNDPKKAPVARSSVGWDATEDLRISRTDSFSSMTSDSDTTSPTGQQPSDAFPEDSSKVPREKPGDWKMQSRKRTQTLPNRKCFLTSAFQGANSSKMEIFKNEFWSPSSEAKAGEGHRRTMSQDLRQLSDSQRTSTYDNVPSLPGSPGEEASALSSQACDSKGDTLASPNSETGPGKKNSGEEEIDSLQRMVQELRKEIETQKQMYEEQIKNLEKENYDVWAKVVRLNEELEKEKKKSAALEISLRNMERSREDVEKRNKALEEEVKEFVKSMKEPKTEA
B2: C18orf56, Q8TAI1 (protein)
chain: MTPASGATASLGRLRARPRSRWDAAYLPAVAAVCVARASHVPNGTLRFGVCKARRTMRPLPRRIEVRTKRGPQRPAAPERSPQPRLPPSRHPSRRGPRRHLSGCSAPACRIPTGCRCPCGRPS

The binders below were run against SARS-CoV-2 M (assay: yeast fitness gain over the viral ORF with no human partner (scaled fitness); higher = more likely to interact).
Procedure: (§1)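 Split mouse DHFR complementation in pooled diploid yeast: human ORFeome clones carry one fragment and viral ORFs the other; barcoded lineages compete in 1 µg/mL methotrexate and fitness is read by barcode sequencing in up to three cultures.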

Binder	yeast fitness gain
B1	inactive: 0.0196
B2	inactive: -0.0137

These binders were tested against SARS-CoV-2 N in the same assay as above.
Procedure: as §1

Binder	yeast fitness gain
B1	inactive: -0.0758
B2	inactive: 0.0346

Each binder was assayed against SARS-CoV-2 NSP1 in the same assay as above.
Procedure: as §1

Binder	yeast fitness gain
B1	inactive: -0.0659
B2	inactive: -0.0426

These binders were tested against SARS-CoV-2 NSP10 in the same assay as above.
Procedure: as §1

Binder	yeast fitness gain
B1	inactive: 0.0653
B2	inactive: -0.0557

The binders below were run against SARS-CoV-2 NSP12 in the same assay as above.
Procedure: as §1

Binder	yeast fitness gain
B1	inactive: 0.0311
B2	inactive: -0.0762

Each binder was assayed against SARS-CoV-2 NSP13 in the same assay as above.
Procedure: as §1

Binder	yeast fitness gain
B1	inactive: 0.0652
B2	inactive: -0.107

These binders were tested against SARS-CoV-2 NSP14 in the same assay as above.
Procedure: as §1

Binder	yeast fitness gain
B1	inactive: 0.0998

These binders were tested against SARS-CoV-2 NSP16 in the same assay as above.
Procedure: as §1

Binder	yeast fitness gain
B1	inactive: 0.0824
B2	inactive: 0.0747

These binders were tested against SARS-CoV-2 NSP2 in the same assay as above.
Procedure: as §1

Binder	yeast fitness gain
B1	inactive: -0.136
B2	inactive: -0.203

Each binder was assayed against SARS-CoV-2 NSP5 in the same assay as above.
Procedure: as §1

Binder	yeast fitness gain
B1	inactive: -0.0653
B2	inactive: -0.0646

The binders below were run against SARS-CoV-2 NSP6 in the same assay as above.
Procedure: as §1

Binder	yeast fitness gain
B1	inactive: 0.0919
B2	inactive: -0.053

These binders were tested against SARS-CoV-2 NSP7 in the same assay as above.
Procedure: as §1

Binder	yeast fitness gain
B1	inactive: -0.0331
B2	inactive: 0.00295

The binders below were run against SARS-CoV-2 NSP8 in the same assay as above.
Procedure: as §1

Binder	yeast fitness gain
B1	inactive: -0.0196
B2	inactive: 0.0472

Each binder was assayed against SARS-CoV-2 NSP9 in the same assay as above.
Procedure: as §1

Binder	yeast fitness gain
B1	inactive: -0.0383
B2	inactive: -0.16

These binders were tested against SARS-CoV-2 ORF10 in the same assay as above.
Procedure: as §1

Binder	yeast fitness gain
B1	inactive: 0.0349
B2	inactive: 0.114

What follows are binders tested against SARS-CoV-2 ORF3A in the same assay as above.
Procedure: as §1

Binder	yeast fitness gain
B1	inactive: 0.0709
B2	inactive: -0.011

These binders were tested against SARS-CoV-2 ORF3B in the same assay as above.
Procedure: as §1

Binder	yeast fitness gain
B1	inactive: -0.000317
B2	inactive: 0.0417

What follows are binders tested against SARS-CoV-2 ORF6 in the same assay as above.
Procedure: as §1

Binder	yeast fitness gain
B1	inactive: 0.00664
B2	inactive: -0.154

The binders below were run against SARS-CoV-2 ORF7A in the same assay as above.
Procedure: as §1

Binder	yeast fitness gain
B1	inactive: 0.0319
B2	inactive: 0.0894

What follows are binders tested against SARS-CoV-2 ORF7B in the same assay as above.
Procedure: as §1

Binder	yeast fitness gain
B1	inactive: -0.0388
B2	inactive: -0.0049

These binders were tested against SARS-CoV-2 ORF8 in the same assay as above.
Procedure: as §1

Binder	yeast fitness gain
B1	inactive: -0.248
B2	inactive: -0.0152

These binders were tested against SARS-CoV-2 ORF9B in the same assay as above.
Procedure: as §1

Binder	yeast fitness gain
B1	inactive: 0.0152
B2	inactive: 0.0722

What follows are binders tested against SARS-CoV-2 ORF9Bwu (the 73-codon ORF) in the same assay as above.
Procedure: as §1

Binder	yeast fitness gain
B1	inactive: -0.208
B2	inactive: 0.0565

These binders were tested against SARS-CoV-2 S in the same assay as above.
Procedure: as §1

Binder	yeast fitness gain
B1	inactive: 0.0259
B2	inactive: -0.0402
